# Laboratory results: publication PMC4336329 (PLoS ONE, 2015)
# Hit rate of the full screen: of about 310,000 compounds, about 2,200 (0.71%) showed an effect of 50% or more. The effect is printed as a negative number. This is one part of the list.
# Molecular target: human ether-à-go-go-related gene (hERG) potassium channel (human, UniProt Q12809)
# Test: primary screen, population patch clamp on CHO cells stably expressing hERG
# human ether-à-go-go-related gene (hERG) potassium channel, sequence (Q12809 whole entry, looked up): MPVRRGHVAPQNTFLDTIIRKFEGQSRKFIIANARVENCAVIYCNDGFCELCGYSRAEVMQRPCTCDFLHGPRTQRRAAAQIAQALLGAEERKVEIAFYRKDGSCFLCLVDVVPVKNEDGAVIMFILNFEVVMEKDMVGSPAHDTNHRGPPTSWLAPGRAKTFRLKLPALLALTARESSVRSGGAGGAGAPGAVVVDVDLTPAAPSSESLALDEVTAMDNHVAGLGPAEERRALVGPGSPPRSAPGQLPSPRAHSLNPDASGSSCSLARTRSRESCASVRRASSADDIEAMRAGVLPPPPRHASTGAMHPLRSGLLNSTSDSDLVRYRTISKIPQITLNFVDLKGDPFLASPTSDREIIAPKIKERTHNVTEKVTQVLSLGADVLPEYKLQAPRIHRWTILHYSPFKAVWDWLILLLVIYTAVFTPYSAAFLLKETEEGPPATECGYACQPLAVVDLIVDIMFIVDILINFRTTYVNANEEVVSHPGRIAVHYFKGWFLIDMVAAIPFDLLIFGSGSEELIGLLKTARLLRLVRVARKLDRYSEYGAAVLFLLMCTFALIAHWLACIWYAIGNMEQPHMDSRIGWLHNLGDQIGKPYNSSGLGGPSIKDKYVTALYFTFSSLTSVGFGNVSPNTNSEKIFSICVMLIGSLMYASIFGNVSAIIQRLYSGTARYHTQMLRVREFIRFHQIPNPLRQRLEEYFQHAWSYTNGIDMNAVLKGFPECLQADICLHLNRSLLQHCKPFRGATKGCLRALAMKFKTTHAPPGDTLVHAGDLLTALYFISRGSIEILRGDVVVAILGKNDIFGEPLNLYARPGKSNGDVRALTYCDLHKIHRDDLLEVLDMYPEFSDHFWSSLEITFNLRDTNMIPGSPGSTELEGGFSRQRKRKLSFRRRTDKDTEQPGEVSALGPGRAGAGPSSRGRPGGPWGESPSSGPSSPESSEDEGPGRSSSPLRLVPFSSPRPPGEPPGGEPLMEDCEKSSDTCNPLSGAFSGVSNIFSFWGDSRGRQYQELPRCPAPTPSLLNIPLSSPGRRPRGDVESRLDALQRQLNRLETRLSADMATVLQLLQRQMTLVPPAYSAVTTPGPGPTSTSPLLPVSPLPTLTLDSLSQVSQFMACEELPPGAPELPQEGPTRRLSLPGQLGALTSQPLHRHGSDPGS
row,SMILES,"hERG current change (%, negative = inhibition) at 1uM [%]"
1,COc1ccccc1OC(C)C(=O)N1CCC(Cc2ccccc2)CC1 (stereo not drawn),11.2
2,CCn1cc(C(=O)NNC(=O)c2ccc(Cl)cc2)c(=O)c2ccc(C)nc21,3.33
3,Cc1nn(-c2ccccc2)c(C)c1NC(=O)COC(=O)c1cc(Cl)ccc1O,10.9
4,CC(C)CCC1(CCNC(=O)c2cccs2)CCOC(C)(C)C1 (stereo not drawn),11.8
5,C=CCn1c(SCc2nc3c(c(=O)[nH]c(=O)n3CCCC)n2CCC)nnc1-c1ccccc1,-33.8
6,CCOc1ccc(N2CC(C(=O)NCc3ccco3)CC2=O)cc1 (stereo not drawn),13.9
7,NS(=O)(=O)c1ccc(NC(=O)c2cc(=O)c3ccccc3o2)cc1,19.4
8,Cc1cc(Nc2ccccc2F)n2nc(C)nc2n1,10.2
9,Cc1cccc(C(=O)Oc2ccc3ccc(O)cc3c2)c1,13.2
10,CC(C)NC(=O)NC(=O)COC(=O)c1ccccc1F,7.65
11,COc1ccc(CNC(=O)c2cc(-c3ccc(OC)c(OC)c3)on2)cc1,7.35
12,CCn1c2ccc(C)cc2c2n[nH]c(=S)nc21,15.8
13,CCn1c(SCC(=O)N2CCc3ccccc32)nc2c(c1=O)SC(C)C2 (stereo not drawn),3.15
14,CCN(CC)c1ccc(/C=C2\C(=N)N3N=C(CC(=O)N4CCOCC4)SC3=NC2=O)cc1,13.9
15,COc1ccc(/C(O)=C2/C(=O)C(=O)N(CCCN(C)C)C2c2ccc(Cl)cc2)cc1OC (stereo not drawn),10.7
16,C#CCOCCOCCOCCNc1nc(N2CCN(C(=O)CCCCCCCCCCNC(=O)[C@H](CCCCN)n3cc(CCO)nn3)CC2)nc(N2CCN(C(=O)CCCCCCCCCCNC(=O)[C@H](CCCCN)n3cc(CCCC(=O)O)nn3)CC2)n1,10.1
17,CC(=O)N1CCN(c2ccc(NC(=O)c3ccccc3Cl)cc2)CC1,4.11
18,O=C(C1CCN(Cc2nc(-c3ccc(Cl)cc3)no2)CC1)N1CCOCC1,9.83
19,Cc1ccc(NC(=O)c2cc(NC(=O)c3ccco3)ccc2N2CCCCC2)cc1,11
20,C=CCn1c(SCC(=O)c2ccc(CNC(C)=O)o2)nc2ccccc2c1=O,0.969
21,Cc1cccc(N2C(=O)CCC2=O)c1,3.13
22,CCN(CC)C(=O)COc1ccc2oc(C)c(C(=O)OC)c2c1,2.26
23,O=C(Nc1ccon1)c1cc2c(s1)CCCC2,-6.76

row,SMILES,"hERG current change (%, negative = inhibition) at 1uM [%]"
1,Cc1ccc(/C=[N+](/[O-])C2SC(=S)N(C)C2(C)C)cc1 (stereo not drawn),16.3
2,Cc1cc(C(=O)N2CCN(c3ncccn3)CC2)nn1C,-0.946
3,CCC(C)C(Nc1ncnc2scc(-c3ccccc3)c12)C(=O)O (stereo not drawn),9.25
4,COC(=O)C1=C(C)NC(=S)NC1c1ccc(OCC(=O)N2CC(C)OC(C)C2)c(OC)c1 (stereo not drawn),17.8
5,O=C(COC(=O)CC1CCCC1)Nc1ccc(OC(F)F)cc1,20.6
6,CCCN(CCC)CCCNC(=O)Cn1cnc2sc(C)c(S(=O)(=O)N3CCC(C)CC3)c2c1=O,14.2
7,COc1cc(C2Nn3c(nnc3-c3ccccc3OC)S2)ccc1O (stereo not drawn),14.9
8,CCN(CCNC(=O)C1CCN(c2nnc(-n3cccc3)s2)CC1)c1ccccc1,7.66
9,CC(NC(=O)c1ccccc1Cl)C1COc2ccccc2O1 (stereo not drawn),7.74
10,CCC1(CC)C(=O)C(C)(C)C(=O)OC1c1cccs1 (stereo not drawn),-11.2
11,COc1cccc(C(=O)OCn2nnc3ccccc3c2=O)c1,9.35
12,O=C(c1ccco1)N1CCN(S(=O)(=O)c2cccc(C(F)(F)F)c2)CC1,7.47
13,C=CCn1c(SCC(=O)N(C)c2c(N)n(Cc3ccccc3)c(=O)[nH]c2=O)nnc1-c1ccccc1OC,10.5
14,CC(=O)Nc1ccc(NC(=O)CSc2nccn2Cc2ccc(Cl)cc2)cc1,11.6
15,CCCCCc1c(C)nc(N2CCOCC2)[nH]c1=O,11.2
16,Cc1ccc(OCC(=O)NCC2CCCO2)c(C)c1 (stereo not drawn),11.6
17,COc1cc(C(=O)OC(C)C(=O)Nc2ccc3c(c2)OCO3)ccc1OCc1c(C)noc1C (stereo not drawn),16.5
18,C=CCNC(=O)Cn1nc(-c2ccccc2)ccc1=O,6.7
19,Cc1cc(C)c(C#N)c(OCC(=O)c2ccc(Br)cc2)n1,12.6
20,Cc1cccc(NS(=O)(=O)c2cccc(C(=O)N3CCN(S(=O)(=O)c4ccccc4)CC3)c2)c1,6.66
21,CC(C)C(=O)Nc1ccc2c(c1)nc(CCN1CCCCC1)n2C,8.94
22,Cc1ccc2[nH]c3c(c2c1)CN(C(=O)CN1CCN(c2cccc(C)c2C)CC1)CC3.Cl,8.51
23,Cc1cc(C)c(S(=O)(=O)Nc2cccc(S(=O)(=O)N3CCOCC3)c2)c(C)c1,3.29

row,SMILES,"hERG current change (%, negative = inhibition) at 1uM [%]"
1,Cc1csc(-c2coc3cc(O)cc(C)c3c2=O)n1,12.2
2,Cc1nn(Cc2ccccc2Cl)c(C)c1C(=O)NCC(c1cccs1)N1CCOCC1 (stereo not drawn),7.73
3,O=c1[nH]c(=S)n(-c2ccccc2)c(O)c1/C=N/N1CCOCC1,-9.19
4,CCC(=O)N1CCC2(CC1)Oc1ccc(Cl)cc1C(=O)C21CC(c2ccccc2)=NO1 (stereo not drawn),19.1
5,CCOC(=O)c1sc(NC(=O)c2ccco2)c(C#N)c1C,9.25
6,COc1ccc(C(C)=O)cc1CSc1nc2ccccc2o1,10.7
7,Cc1ccc(NC(=O)c2ccc3ccccc3n2)nc1,6.59
8,CCOC(=O)Cn1ccc(NC(=O)c2ccc(F)cc2)n1,10.6
9,CCN(CC)C(=S)NC(=O)c1ccc(Cl)cc1Cl,9.21
10,O=C(O)c1ccc(N/N=C/C=C/c2ccc([N+](=O)[O-])o2)cc1,9.41
11,CCCn1c(=O)c2ccccc2n2c(SCCOc3ccccc3)nnc12,4.76
12,COC(=O)[C@H](CCSC)NC(=O)NCCc1ccc(F)cc1,5.97
13,Cc1ccc(S(=O)(=O)Nc2ccc(O)c3cccnc23)cc1,2.8
14,CSc1ccc(S(=O)(=O)NCc2ccc(Cl)cc2)cc1,-8.66
15,CCOc1ccc(N2CC(C(=O)Nc3ccc4c(c3)OCCO4)CC2=O)cc1 (stereo not drawn),13.2
16,CCOC(=O)[C@H]1[C@H]2COc3ccc(Cl)cc3[C@@H]2N2C(=O)CNC(=O)[C@@]12C,20.5
17,CCOC(=O)c1sc(NC(=O)C(CC)Sc2nc3ccccc3[nH]2)nc1C (stereo not drawn),4.28
18,CN1CCCNc2nc3ccccc3nc21,11.3
19,O=C(O)C1(Cc2nc3ccccc3[nH]2)CCCC1,17.6
20,Nc1cnn(C2CCCO2)c(=O)n1 (stereo not drawn),13
21,Cc1ccc(CN2CCN(Cc3nc(C(C)C)cs3)CC2CCO)cc1 (stereo not drawn),-50.8
22,CC(=O)Nc1ccc2c(c1)CCC2=O,-6.12
23,COC(=O)c1ccc(CSc2cc(C)c3cccc(C)c3n2)o1,1.89

row,SMILES,"hERG current change (%, negative = inhibition) at 1uM [%]"
1,COC(=O)c1ccccc1NC1CC(=O)N(c2c(C)cccc2C)C1=O (stereo not drawn),5.32
2,CCCc1cc(C(=O)NCc2cccs2)no1,8.75
3,COc1ccc(OC)c2sc(NC(=O)C(C)C)nc12,5.32
4,Cc1ccc(NC(=O)NNC(=O)c2cc3ccccc3cc2O)cc1,19
5,Nc1nccnc1C(=O)N/N=C/c1ccco1,13.2
6,CCC1(c2ccccc2)NC(=O)N(CC(=O)Nc2ccccc2C(=O)N2CCCCC2)C1=O (stereo not drawn),8.29
7,CCCSc1ncnc2c1oc1ccccc12,-3.78
8,CS(=O)(=O)N(CC(=O)N/N=C/c1cccs1)c1cccc(Cl)c1Cl,2.6
9,Cc1ccc(CNC(=O)CN(CCc2ccccc2)S(C)(=O)=O)cc1,1.12
10,COc1ccc(-c2nnc(NC(=O)CS(=O)(=O)c3ccc(F)cc3)o2)c(OC)c1,12.6
11,Cc1ccc(N2CCN(S(=O)(=O)N3CCCCC3)CC2)c(C)c1,16.5
12,CC1=C(C(=O)OC2CCCCC2)C(c2cccnc2)n2ncnc2N1 (stereo not drawn),13
13,S=C(NCc1ccc(Cl)cc1)Nc1ccccc1,0.965
14,Cc1sc(NC(=O)CN(Cc2ccccc2)C(=O)C2CC2)c(C(N)=O)c1C,12.5
15,Cc1cccc(C)c1OCc1cc(C(=O)N2CCNC(=O)C2)no1,4.59
16,O=C(Cn1[nH]c(=O)c2ccccc2c1=O)OCC(=O)N1CCc2ccccc2C1,-1.11
17,COc1ccc(N2C(=O)CCC2(C(N)=O)c2ccccc2)cc1 (stereo not drawn),4.96
18,COc1ccc(C(=O)Oc2ccc(/C=N/NC(=O)c3ccccc3OC)cc2[N+](=O)[O-])cc1,-0.102
19,Cc1cc(NC(=O)c2ccc3nc(C)sc3c2)no1,9.35
20,COC(=O)c1ccccc1OCCOc1ccccc1C(=O)OC,9.72
21,O=C(CC1C(=O)NCCN1Cc1cccc(Oc2ccccc2)c1)NCCc1cnccn1 (stereo not drawn),15
